# Measurements taken from PMC12820563, “FoxP3 forms a head-to-head dimer in vivo and stabilizes its multimerization on adjacent microsatellites”.
# This is one part of the list.
# Molecular target: T1, MBP-FoxP1dN (Mus musculus, UniProt P58462 326-579)
# T1 sequence: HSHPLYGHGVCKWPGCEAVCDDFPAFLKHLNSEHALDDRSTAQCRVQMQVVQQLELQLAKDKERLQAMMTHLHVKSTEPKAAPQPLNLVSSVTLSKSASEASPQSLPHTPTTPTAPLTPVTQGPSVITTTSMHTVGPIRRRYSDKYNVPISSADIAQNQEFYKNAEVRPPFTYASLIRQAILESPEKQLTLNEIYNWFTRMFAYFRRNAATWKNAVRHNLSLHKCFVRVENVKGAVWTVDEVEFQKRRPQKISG
# Assay: PD-seq (MBP pull-down with sequencing); 20 mM Tris-HCl pH 7.5, 100 mM NaCl, 1.5 mM MgCl2, 0.4 uM protein, 0.1 uM dsDNA library, 30 min, room temperature, amylose pull-down; high values mean tight binding
# Conditions: protein: recombinant; tags: His6-MBP; chain copies: 2; dsDNA, one strand shown
# How it was run: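 The N-terminus-lacking fragment of mouse FoxP3 or FoxP1 carried a His6-MBP tag and was expressed in E. coli. At 0.4 µM it was incubated with 0.1 µM Klenow-filled degenerate double-stranded DNA library for 30 min at room temperature in Tris pH 7.5 buffer with NaCl and MgCl2, and complexes were caught on amylose resin, washed three times, released with proteinase K, PCR-barcoded and Illumina-sequenced. Binding is reads-per-million enrichment of pull-down over input with replicates pooled.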
row,Sequence,binding signal
1,GATGATTGTTCTCCCAGCTGATGAATTGCGATGTTCGAGTAAACAAATTTTCCTAATCTTTCTGTTCAAGCGCCATCTAC,1.14 RPM ratio (pull-down/input)
2,GATGATTGTTCTCCCAGCTGATGAATTAGCCAGATCGAGTAAACAAATTTTCCTAATCTTTCTGTTCAAGCGCCATCTAC,0.835 RPM ratio (pull-down/input)
3,GATGATTGTTCTCCCAGCTGATGAATTAGATAGTTCGAGTAAACAAATTTTCCTAATCTTTCTGTTCAAGCGCCATCTAC,0.938 RPM ratio (pull-down/input)
4,GATGATTGTTCTCCCAGCTGATGAATTCTGCTTGTCGAGTAAACAAATTTTCCTAATCTTTCTGTTCAAGCGCCATCTAC,1.19 RPM ratio (pull-down/input)
5,GATGATTGTTCTCCCAGCTGATGAATTAAATCCTTCGAGTAAACAAATTTTCCTAATCTTTCTGTTCAAGCGCCATCTAC,0.91 RPM ratio (pull-down/input)
6,GATGATTGTTCTCCCAGCTGATGAATTGGTGCTTTCGAGTAAACAAATTTTCCTAATCTTTCTGTTCAAGCGCCATCTAC,1.3 RPM ratio (pull-down/input)
7,GATGATTGTTCTCCCAGCTGATGAATTCTAGACATCGAGTAAACAAATTTTCCTAATCTTTCTGTTCAAGCGCCATCTAC,1.04 RPM ratio (pull-down/input)
8,GATGATTGTTCTCCCAGCTGATGAATTGGGTTTGTCGAGTAAACAAATTTTCCTAATCTTTCTGTTCAAGCGCCATCTAC,1.06 RPM ratio (pull-down/input)
9,GATGATTGTTCTCCCAGCTGATGAATTTCATGATTCGAGTAAACAAATTTTCCTAATCTTTCTGTTCAAGCGCCATCTAC,0.981 RPM ratio (pull-down/input)
10,GATGATTGTTCTCCCAGCTGATGAATTAGGCGGATCGAGTAAACAAATTTTCCTAATCTTTCTGTTCAAGCGCCATCTAC,0.908 RPM ratio (pull-down/input)
11,GATGATTGTTCTCCCAGCTGATGAATTGTCGAGGTCGAGTAAACAAATTTTCCTAATCTTTCTGTTCAAGCGCCATCTAC,0.934 RPM ratio (pull-down/input)
12,GATGATTGTTCTCCCAGCTGATGAATTGCTCGATTCGAGTAAACAAATTTTCCTAATCTTTCTGTTCAAGCGCCATCTAC,1.06 RPM ratio (pull-down/input)
13,GATGATTGTTCTCCCAGCTGATGAATTCACAGGTTCGAGTAAACAAATTTTCCTAATCTTTCTGTTCAAGCGCCATCTAC,0.792 RPM ratio (pull-down/input)
14,GATGATTGTTCTCCCAGCTGATGAATTCGTAGAGTCGAGTAAACAAATTTTCCTAATCTTTCTGTTCAAGCGCCATCTAC,0.749 RPM ratio (pull-down/input)
15,GATGATTGTTCTCCCAGCTGATGAATTACCTGCATCGAGTAAACAAATTTTCCTAATCTTTCTGTTCAAGCGCCATCTAC,1.16 RPM ratio (pull-down/input)
16,GATGATTGTTCTCCCAGCTGATGAATTAGGTGCTTCGAGTAAACAAATTTTCCTAATCTTTCTGTTCAAGCGCCATCTAC,0.948 RPM ratio (pull-down/input)
17,GATGATTGTTCTCCCAGCTGATGAATTCATGCTTTCGAGTAAACAAATTTTCCTAATCTTTCTGTTCAAGCGCCATCTAC,1.28 RPM ratio (pull-down/input)
18,GATGATTGTTCTCCCAGCTGATGAATTATGAAAATCGAGTAAACAAATTTTCCTAATCTTTCTGTTCAAGCGCCATCTAC,1.18 RPM ratio (pull-down/input)
19,GATGATTGTTCTCCCAGCTGATGAATTCAGGGGATCGAGTAAACAAATTTTCCTAATCTTTCTGTTCAAGCGCCATCTAC,0.773 RPM ratio (pull-down/input)
20,GATGATTGTTCTCCCAGCTGATGAATTGTTAACGTCGAGTAAACAAATTTTCCTAATCTTTCTGTTCAAGCGCCATCTAC,1.09 RPM ratio (pull-down/input)
21,GATGATTGTTCTCCCAGCTGATGAATTAGGGATGTCGAGTAAACAAATTTTCCTAATCTTTCTGTTCAAGCGCCATCTAC,0.827 RPM ratio (pull-down/input)

row,Sequence,binding signal
1,GATGATTGTTCTCCCAGCTGATGAATTGACCCGTTCGAGTAAACAAATTTTCCTAATCTTTCTGTTCAAGCGCCATCTAC,0.907 RPM ratio (pull-down/input)
2,GATGATTGTTCTCCCAGCTGATGAATTAAATTTGTCGAGTAAACAAATTTTCCTAATCTTTCTGTTCAAGCGCCATCTAC,1.06 RPM ratio (pull-down/input)
3,GATGATTGTTCTCCCAGCTGATGAATTAAGTCCTTCGAGTAAACAAATTTTCCTAATCTTTCTGTTCAAGCGCCATCTAC,0.887 RPM ratio (pull-down/input)
4,GATGATTGTTCTCCCAGCTGATGAATTGAATATTTCGAGTAAACAAATTTTCCTAATCTTTCTGTTCAAGCGCCATCTAC,0.952 RPM ratio (pull-down/input)
5,GATGATTGTTCTCCCAGCTGATGAATTATGTGCATCGAGTAAACAAATTTTCCTAATCTTTCTGTTCAAGCGCCATCTAC,1.45 RPM ratio (pull-down/input)
6,GATGATTGTTCTCCCAGCTGATGAATTCGCGTGGTCGAGTAAACAAATTTTCCTAATCTTTCTGTTCAAGCGCCATCTAC,0.928 RPM ratio (pull-down/input)
7,GATGATTGTTCTCCCAGCTGATGAATTTCGTTCATCGAGTAAACAAATTTTCCTAATCTTTCTGTTCAAGCGCCATCTAC,0.901 RPM ratio (pull-down/input)
8,GATGATTGTTCTCCCAGCTGATGAATTTCGTCCCTCGAGTAAACAAATTTTCCTAATCTTTCTGTTCAAGCGCCATCTAC,0.846 RPM ratio (pull-down/input)
9,GATGATTGTTCTCCCAGCTGATGAATTCTGCAGCTCGAGTAAACAAATTTTCCTAATCTTTCTGTTCAAGCGCCATCTAC,0.831 RPM ratio (pull-down/input)
10,GATGATTGTTCTCCCAGCTGATGAATTGCGTACCTCGAGTAAACAAATTTTCCTAATCTTTCTGTTCAAGCGCCATCTAC,1.09 RPM ratio (pull-down/input)
11,GATGATTGTTCTCCCAGCTGATGAATTTTTAGCCTCGAGTAAACAAATTTTCCTAATCTTTCTGTTCAAGCGCCATCTAC,0.907 RPM ratio (pull-down/input)
12,GATGATTGTTCTCCCAGCTGATGAATTCGGAGCATCGAGTAAACAAATTTTCCTAATCTTTCTGTTCAAGCGCCATCTAC,1 RPM ratio (pull-down/input)
13,GATGATTGTTCTCCCAGCTGATGAATTGAAAACATCGAGTAAACAAATTTTCCTAATCTTTCTGTTCAAGCGCCATCTAC,1.8 RPM ratio (pull-down/input)
14,GATGATTGTTCTCCCAGCTGATGAATTGGGCCCATCGAGTAAACAAATTTTCCTAATCTTTCTGTTCAAGCGCCATCTAC,0.862 RPM ratio (pull-down/input)
15,GATGATTGTTCTCCCAGCTGATGAATTATATGGGTCGAGTAAACAAATTTTCCTAATCTTTCTGTTCAAGCGCCATCTAC,0.903 RPM ratio (pull-down/input)
16,GATGATTGTTCTCCCAGCTGATGAATTACATCCTTCGAGTAAACAAATTTTCCTAATCTTTCTGTTCAAGCGCCATCTAC,1.13 RPM ratio (pull-down/input)
17,GATGATTGTTCTCCCAGCTGATGAATTGCTCTCGTCGAGTAAACAAATTTTCCTAATCTTTCTGTTCAAGCGCCATCTAC,0.971 RPM ratio (pull-down/input)
18,GATGATTGTTCTCCCAGCTGATGAATTGTTATGATCGAGTAAACAAATTTTCCTAATCTTTCTGTTCAAGCGCCATCTAC,1.68 RPM ratio (pull-down/input)
19,GATGATTGTTCTCCCAGCTGATGAATTTATCACGTCGAGTAAACAAATTTTCCTAATCTTTCTGTTCAAGCGCCATCTAC,1.13 RPM ratio (pull-down/input)
20,GATGATTGTTCTCCCAGCTGATGAATTGCCTTGGTCGAGTAAACAAATTTTCCTAATCTTTCTGTTCAAGCGCCATCTAC,0.865 RPM ratio (pull-down/input)
21,GATGATTGTTCTCCCAGCTGATGAATTTCCACCTTCGAGTAAACAAATTTTCCTAATCTTTCTGTTCAAGCGCCATCTAC,0.855 RPM ratio (pull-down/input)

row,Sequence,binding signal
1,GATGATTGTTCTCCCAGCTGATGAATTTCTACGGTCGAGTAAACAAATTTTCCTAATCTTTCTGTTCAAGCGCCATCTAC,0.821 RPM ratio (pull-down/input)
2,GATGATTGTTCTCCCAGCTGATGAATTCGTTCAATCGAGTAAACAAATTTTCCTAATCTTTCTGTTCAAGCGCCATCTAC,0.909 RPM ratio (pull-down/input)
3,GATGATTGTTCTCCCAGCTGATGAATTGGAGTACTCGAGTAAACAAATTTTCCTAATCTTTCTGTTCAAGCGCCATCTAC,0.851 RPM ratio (pull-down/input)
4,GATGATTGTTCTCCCAGCTGATGAATTCTATCAATCGAGTAAACAAATTTTCCTAATCTTTCTGTTCAAGCGCCATCTAC,1.04 RPM ratio (pull-down/input)
5,GATGATTGTTCTCCCAGCTGATGAATTGTAGCACTCGAGTAAACAAATTTTCCTAATCTTTCTGTTCAAGCGCCATCTAC,1 RPM ratio (pull-down/input)
6,GATGATTGTTCTCCCAGCTGATGAATTTCCCTCGTCGAGTAAACAAATTTTCCTAATCTTTCTGTTCAAGCGCCATCTAC,0.774 RPM ratio (pull-down/input)
7,GATGATTGTTCTCCCAGCTGATGAATTCAAGTACTCGAGTAAACAAATTTTCCTAATCTTTCTGTTCAAGCGCCATCTAC,0.872 RPM ratio (pull-down/input)
8,GATGATTGTTCTCCCAGCTGATGAATTGTCCCAGTCGAGTAAACAAATTTTCCTAATCTTTCTGTTCAAGCGCCATCTAC,0.959 RPM ratio (pull-down/input)
9,GATGATTGTTCTCCCAGCTGATGAATTCCCGTATTCGAGTAAACAAATTTTCCTAATCTTTCTGTTCAAGCGCCATCTAC,0.957 RPM ratio (pull-down/input)
10,GATGATTGTTCTCCCAGCTGATGAATTATTAGTATCGAGTAAACAAATTTTCCTAATCTTTCTGTTCAAGCGCCATCTAC,1.46 RPM ratio (pull-down/input)
11,GATGATTGTTCTCCCAGCTGATGAATTTGCGCCTTCGAGTAAACAAATTTTCCTAATCTTTCTGTTCAAGCGCCATCTAC,1.02 RPM ratio (pull-down/input)
12,GATGATTGTTCTCCCAGCTGATGAATTGTTACTGTCGAGTAAACAAATTTTCCTAATCTTTCTGTTCAAGCGCCATCTAC,1.34 RPM ratio (pull-down/input)
13,GATGATTGTTCTCCCAGCTGATGAATTCAAAAGCTCGAGTAAACAAATTTTCCTAATCTTTCTGTTCAAGCGCCATCTAC,0.896 RPM ratio (pull-down/input)
14,GATGATTGTTCTCCCAGCTGATGAATTGAGCTGGTCGAGTAAACAAATTTTCCTAATCTTTCTGTTCAAGCGCCATCTAC,0.754 RPM ratio (pull-down/input)
15,GATGATTGTTCTCCCAGCTGATGAATTAGCTCCCTCGAGTAAACAAATTTTCCTAATCTTTCTGTTCAAGCGCCATCTAC,0.772 RPM ratio (pull-down/input)
16,GATGATTGTTCTCCCAGCTGATGAATTGCATATCTCGAGTAAACAAATTTTCCTAATCTTTCTGTTCAAGCGCCATCTAC,1.19 RPM ratio (pull-down/input)
17,GATGATTGTTCTCCCAGCTGATGAATTTCATTTTTCGAGTAAACAAATTTTCCTAATCTTTCTGTTCAAGCGCCATCTAC,0.973 RPM ratio (pull-down/input)
18,GATGATTGTTCTCCCAGCTGATGAATTGACTCGGTCGAGTAAACAAATTTTCCTAATCTTTCTGTTCAAGCGCCATCTAC,0.898 RPM ratio (pull-down/input)
19,GATGATTGTTCTCCCAGCTGATGAATTGCCCTTCTCGAGTAAACAAATTTTCCTAATCTTTCTGTTCAAGCGCCATCTAC,0.864 RPM ratio (pull-down/input)
20,GATGATTGTTCTCCCAGCTGATGAATTCAACAAGTCGAGTAAACAAATTTTCCTAATCTTTCTGTTCAAGCGCCATCTAC,1.07 RPM ratio (pull-down/input)
21,GATGATTGTTCTCCCAGCTGATGAATTCCCGGCGTCGAGTAAACAAATTTTCCTAATCTTTCTGTTCAAGCGCCATCTAC,0.756 RPM ratio (pull-down/input)
